Test results reported in US20200079850A1 (SUTRO BIOPHARMA, published 2020).

Assays:
[1] = molecular target: T1, rabbit Fc-tagged recombinant human PD1 (rhPD1-rabbit Fc) (human, UniProt Q15116 partial chain, limits assumed); assay: flow cytometry competition: inhibition of rhPD1-rabbit Fc binding to human PD-L1 on CHO cells; PE anti-rabbit IgG detection
T1 construct: also called recombinant human PD-1 protein
Method: (§1) CHO-k cells stably expressing human PD-L1 or PD-L2 were used to measure the ability of anti-PD1/LAG3 bi-specific antibody constructs to block rabbit Fc-tagged recombinant human PD1 (rhPD1-rabbit Fc) protein binding. Cells were seeded at 100,000 cells/well in 100 μL of FACS buffer in 96-well polypropylene plates. The cells were centrifuged and resuspended with test antibodies (2× concentration) diluted in FACS buffer, immediately followed by equal volume of rhPD1-rabbit Fc (added at 2× concentration; 0.2 ng/mL and 0.1 ng/mL final for PD-L1 and PD-L2, respectively). Cells were incubated on ice for 1 hour and washed twice. rhPD1-rabbit Fc binding on CHO-human PD-L1 or PD-L2 cells was detected with R-Phycoerythrin AffiniPure F(ab′)₂ Fragment Goat Anti-Rabbit IgG (H+L) (1:200 dilution, Jackson ImmunoResearch) for 30 minutes. The cells were washed twice with FACS buffer, fixed in 4% paraformaldehyde in PBS for 20 mins on ice in the dark, washed twice with FACS buffer, and analyzed using the BD LSR II Flow Cytometer. Data were analyzed using FlowJo (FlowJo, LLC; Ashland, Oreg.) to determine mean fluorescence intensities. Prism 6 software was used to create one site, specific binding with Hill slope curves (Log transform) to determine IC₅₀ values.

[2] = molecular target: T1, rabbit Fc-tagged recombinant human PD1 …; assay: flow cytometry competition: inhibition of rhPD1-rabbit Fc binding to human PD-L2 on CHO cells; PE anti-rabbit IgG detection
Method: as §1

[3] = molecular target: T2, hLAG3 (Acro Biosystems), SPR analyte (human, UniProt P18627 23-450); assay: SPR (Biacore), antibody captured by anti-Fc, hLAG3 as analyte, 25 C
T2 construct: also called human LAG3 kinetics
T2 sequence: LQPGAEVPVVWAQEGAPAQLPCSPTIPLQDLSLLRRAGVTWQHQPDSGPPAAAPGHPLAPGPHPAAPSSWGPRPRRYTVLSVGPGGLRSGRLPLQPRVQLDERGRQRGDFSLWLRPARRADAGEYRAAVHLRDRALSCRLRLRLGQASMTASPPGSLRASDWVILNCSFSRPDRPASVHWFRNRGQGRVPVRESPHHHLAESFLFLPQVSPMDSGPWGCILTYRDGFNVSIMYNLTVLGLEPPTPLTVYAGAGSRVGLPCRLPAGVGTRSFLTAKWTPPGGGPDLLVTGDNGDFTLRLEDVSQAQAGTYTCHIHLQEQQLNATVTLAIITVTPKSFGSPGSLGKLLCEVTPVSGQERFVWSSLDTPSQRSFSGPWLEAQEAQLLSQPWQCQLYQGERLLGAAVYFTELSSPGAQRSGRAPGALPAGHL
Method: Anti-Fc polyclonal antibodies were immobilized onto a CMS chip (GE Life Sciences) using amine coupling chemistry (from Amine Coupling Kit, GE Life Sciences). The immobilization steps were carried out at a flow rate of 25 μl/min in 1×HBS-EP+buffer (GE Life Sciences; 10× Stock diluted before use). The sensor surfaces were activated for 7 min with a mixture of NHS (0.05 M) and EDC (0.2 M). The Anti-Fc antibodies were injected over all 4 flow cells at a concentration of 25 ug/ml in 10 mM sodium acetate, pH 4.5, for 7 min. Ethanolamine (1 M, pH 8.5) was injected for 7 min to block any remaining activated groups. An average of 12,000 response units (RU) of capture antibody was immobilized on each flow cell.
Kinetic binding experiments were performed at 25° C. using 1×HBS-EP+buffer. Test and control antibodies were injected over the anti-Fc surface at concentrations of 5-10 μg/mL for 12 seconds at a flow rate of 10 μl/min on flow cells 2, 3 and 4, followed by a buffer wash for 30 seconds at the same flow rate. Kinetic characterization of antibody samples was carried out with a dilution series of antigen and 1 injection of 0 nM antigen. After capturing ligand (antibody) on the anti-Fc surface, the analyte (hPD1 or hLAG3, Acro Biosystems, Newark, Del.) was bound at 100, 25, 6.25 and 0 nM for 180 seconds, followed by a 450 second dissociation phase at a flow rate of 50 μl/min. Between each ligand capture and analyte binding cycle, regeneration was carried out using 2 injections of 10 mM Glycine pH 2.0 for 30 seconds at 30 μL/min, followed by a 30 second buffer wash step.
The data was fit with the Biacore T200 Evaluation software, using a 1:1 Langmuir binding model. KD (affinity, nM) was determined as a ratio of the kinetic rate constants calculated from the fits of the association and dissociation phases.

[4] = molecular target: T3, human LAG3 expressed on the cell surface (CHO-LAG3, 293T-LAG3 cells) (human, UniProt P18627 23-525); assay: flow cytometry, CHO-LAG3 cells
T3 construct: Stably transfected CHO or HEK293T cells; also called Human LAG3 (CHO); Human LAG3 (293T)
T3 sequence: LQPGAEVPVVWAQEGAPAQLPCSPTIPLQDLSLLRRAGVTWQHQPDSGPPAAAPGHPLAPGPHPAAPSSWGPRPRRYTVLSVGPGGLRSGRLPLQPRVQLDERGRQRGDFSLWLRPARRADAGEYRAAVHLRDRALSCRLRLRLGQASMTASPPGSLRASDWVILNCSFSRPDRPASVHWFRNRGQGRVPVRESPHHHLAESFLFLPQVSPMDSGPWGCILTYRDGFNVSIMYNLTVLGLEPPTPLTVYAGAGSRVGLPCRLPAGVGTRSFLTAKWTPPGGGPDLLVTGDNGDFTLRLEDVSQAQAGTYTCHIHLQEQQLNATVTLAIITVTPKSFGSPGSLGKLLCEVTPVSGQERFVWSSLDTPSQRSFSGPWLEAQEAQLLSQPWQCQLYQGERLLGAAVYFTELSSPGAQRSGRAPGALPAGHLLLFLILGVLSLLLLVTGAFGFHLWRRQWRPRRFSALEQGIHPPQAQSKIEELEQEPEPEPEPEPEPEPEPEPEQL

[5] = molecular target: T1, rabbit Fc-tagged recombinant human PD1 …; assay: flow cytometry competition, rhPD1-rabbit Fc binding to CHO-PD-L1 cells; competitor PD-L1
Method: as §1

T1 sequence (Q15116 25-167 limits assumed): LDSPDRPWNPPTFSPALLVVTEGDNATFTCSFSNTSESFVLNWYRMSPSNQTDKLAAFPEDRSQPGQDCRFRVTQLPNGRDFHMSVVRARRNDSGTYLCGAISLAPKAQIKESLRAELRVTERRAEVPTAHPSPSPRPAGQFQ

B1: PD-1/LAG3 Bi-specific Construct A: aPD1 1353-G10 scFv_zwB × aLAG3 Fab_zwA (bispecific antibody, human IgG1, kappa)
scFv: MEVQLVQSGAEVKKPGASVKVSCKASGYRFPHYGISWVRQAPGQGLEWMGWISAYNGNTNYAQKLQGRVTMTTDTSTNTAYMELRSLRSDDTAVYYCARDVDYGTGSGYWGQGTLVTVSSGGGGSGGGGSGGGGSSYELTQPPSVSVSPGQTARITCSGDALPKQYAYWYQQKPGQAPVMVIYKDTERPSGIPERFSGSSSGTKVTLTISGVQAEDEADYYCQSADNSITYRVFGGGTKVTVLAAGSDQ[no letters for human IgG1 Fc with changes]
heavy: MQVQLVESGGGVVQPGRSLRLSCAASGFTFSSYGMHWVRQAPGKGLEWVAVIWYDGSYKYYADSVKGRFTISRDNSKNTLYLQMNSLRAEDTAVYYCAREEAPENWDYALDVWGQGTTVTVSSASTKGPSVFPLAPSSKSTSGGTAALGCLVKDYFPEPVTVSWNSGALTSGVHTFPAVLQSSGLYSLSSVVTVPSSSLGTQTYICNVNHKPSNTKVDKKVEPKSCDKTHTCPPCPAPELLGGPSVFLFPPKPKDTLMISRTPEVTCVVVDVSHEDPEVKFNWYVDGVEVHNAKTKPREEQYNSTYRVVSVLTVLHQDWLNGKEYKCKVSNKALPAPIEKTISKAKGQPREPQVYVYPPSREEMTKNQVSLTCLVKGFYPSDIAVEWESNGQPENNYKTTPPVLDSDGSFALVSKLTVDKSRWQQGNVFSCSVMHEALHNHYTQKSLSLSPGK
light: [no letters for about 100 residues][no letters for about 120 residues]
notes: also called 1449-G09.2-Fab-zwA
[1]
  IC50: 2.3 nM
[2]
  IC50: 0.8 nM
[3]
  Kd: 0.0845 nM
  koff: 0.000102 s⁻¹
  kon: 1.21e+06 M⁻¹ s⁻¹
[4]
  Kd: 3 nM
[5]
  IC50: 118 nM
